Patent publication EP4603109A1 (Sichuan Kelun-Biotech Biopharmaceutical Co., Ltd., dated 2024)

Legend:
[1] = molecular target: T1, B7-H3 on human tumor cell lines (HT29, NCI-N87, HCC1806, HCC827, A375) (human, UniProt Q5ZPR3 29-534); assay: flow cytometry on HT29 cells
T1 construct: whole, on cells
T1 sequence (looked up): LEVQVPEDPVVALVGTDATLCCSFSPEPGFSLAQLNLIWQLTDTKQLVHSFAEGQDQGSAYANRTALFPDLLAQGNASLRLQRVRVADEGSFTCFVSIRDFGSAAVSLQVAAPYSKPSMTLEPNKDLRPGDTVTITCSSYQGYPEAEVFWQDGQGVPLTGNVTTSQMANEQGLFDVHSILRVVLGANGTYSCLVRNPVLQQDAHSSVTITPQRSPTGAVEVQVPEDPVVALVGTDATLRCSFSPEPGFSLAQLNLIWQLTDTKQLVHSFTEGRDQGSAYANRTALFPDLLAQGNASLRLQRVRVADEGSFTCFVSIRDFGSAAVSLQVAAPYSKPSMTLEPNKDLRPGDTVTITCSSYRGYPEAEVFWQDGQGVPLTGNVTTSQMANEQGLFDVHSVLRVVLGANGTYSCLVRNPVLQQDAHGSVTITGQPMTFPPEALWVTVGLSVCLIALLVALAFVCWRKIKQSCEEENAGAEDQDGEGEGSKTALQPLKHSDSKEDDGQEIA

[2] = molecular target: T1, B7-H3 on human tumor cell lines (HT29, …); assay: flow cytometry on HCC827 cells
rat B7-H3 on CHO-S cells = molecular target: T2, rat B7-H3 on CHO-S cells (rat, UniProt Q7TPB4 29-316); assay: flow cytometry on CHOS-rat B7-H3 cells
T2 construct: whole, on cells; also called CHO-S-rat B7-H3; CHOS-rat B7-H3
T2 sequence (looked up): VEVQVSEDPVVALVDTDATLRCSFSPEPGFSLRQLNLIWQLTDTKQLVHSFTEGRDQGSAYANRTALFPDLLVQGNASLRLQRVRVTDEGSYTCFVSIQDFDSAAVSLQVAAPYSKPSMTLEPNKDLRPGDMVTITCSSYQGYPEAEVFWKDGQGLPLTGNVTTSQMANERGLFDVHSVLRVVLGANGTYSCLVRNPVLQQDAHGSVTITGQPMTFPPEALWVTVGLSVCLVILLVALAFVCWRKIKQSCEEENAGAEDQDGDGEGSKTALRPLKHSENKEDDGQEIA

[3] = molecular target: T1, B7-H3 on human tumor cell lines (HT29, …); assay: flow cytometry on HT29 cells (experiment 2)
[4] = molecular target: T1, B7-H3 on human tumor cell lines (HT29, …); assay: flow cytometry on HCC827 cells (experiment 2)
[5] = molecular target: T3, human B7-H3-2Ig-his protein (human, UniProt Q5ZPR3-2 29-245, limits assumed); assay: BLI (ForteBio), antibody on Protein A sensor, antigen 200-3.125 nM, 1:1 global fit (result 2)
T3 construct: the 2Ig form is its isoform 2; not shown: His tag
T3 sequence (looked up): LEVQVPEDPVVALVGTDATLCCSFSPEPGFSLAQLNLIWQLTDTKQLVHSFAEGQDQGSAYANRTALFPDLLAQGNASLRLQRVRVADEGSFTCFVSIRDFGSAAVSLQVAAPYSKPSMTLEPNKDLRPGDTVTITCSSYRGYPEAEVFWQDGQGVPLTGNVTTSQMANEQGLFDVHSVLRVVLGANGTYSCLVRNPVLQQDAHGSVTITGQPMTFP

monkey B7-H3-his protein = monkey B7-H3-his protein (monkey); assay: as above
[6] = molecular target: T4, human B7-H3-4Ig-his protein (human, UniProt Q5ZPR3 29-461, limits assumed); assay: as above
T4 construct: not shown: His tag
T4 sequence (looked up): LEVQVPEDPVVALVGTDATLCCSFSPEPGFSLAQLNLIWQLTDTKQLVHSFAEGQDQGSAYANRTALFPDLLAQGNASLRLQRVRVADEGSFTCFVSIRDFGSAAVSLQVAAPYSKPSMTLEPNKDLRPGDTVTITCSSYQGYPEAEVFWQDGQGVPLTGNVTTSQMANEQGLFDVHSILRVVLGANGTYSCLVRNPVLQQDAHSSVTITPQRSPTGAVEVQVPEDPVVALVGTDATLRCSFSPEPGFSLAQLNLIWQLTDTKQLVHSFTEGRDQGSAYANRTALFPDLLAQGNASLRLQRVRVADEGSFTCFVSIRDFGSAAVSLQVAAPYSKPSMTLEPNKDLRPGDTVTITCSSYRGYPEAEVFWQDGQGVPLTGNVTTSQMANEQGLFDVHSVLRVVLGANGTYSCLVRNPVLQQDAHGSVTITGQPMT

B1: fully human anti-B7-H3 antibody 2#8890 (antibody, human IgG1, kappa)
heavy: QVQLQESGPGLVQPSGTLSLTCAVSGGSDSSTNWWTWVRQSPGQGLEWIGEISPIGFTSYSPSLRSRVTISVDKSKTQFSLKLSSVTAADTAVYYCARDRLYFAFWGQGTLVTVSSASTKGPSVFPLAPSSKSTSGGTAALGCLVKDYFPEPVTVSWNSGALTSGVHTFPAVLQSSGLYSLSSVVTVPSSSLGTQTYICNVNHKPSNTKVDKKV[human IgG1 Fc with L234A L235A G237A (EU numbers) left out here]
light: EIVMTQSPATLSVSPGERATLSCRASQSVSSNLAWYQQKPGQAPRLLIYGASTRATGIPDRFSGSGSGTEFTLTISSLESEDFAVYYCQQYNNWPITFGQGTRLEIKRTVAAPSVFIFPPSDEQLKSGTASVVCLLNNFYPREAKVQWKVDNALQSGNSQESVTEQDSKDSTYSLSSTLTLSKADYEKHKVYACEVTHQGLSSPVTKSFNRGEC
notes: expressed in CHO-S, Protein A purified
In the case of B1, the EC50 [1] is reported as 0.00634 µg/mL, the EC50 [2] is reported as 0.0123 µg/mL and the binding result (rat B7-H3 on CHO-S cells) is reported as “no binding (tested: 10 ug/ml (highest concentration))”. For the same binder, the EC50 [3] was 0.0114 µg/mL, the EC50 [4] was 0.029 µg/mL and the Kd [5] was 39.8 nM. It also gave a Kd (monkey B7-H3-his protein) of 2.23 nM and a Kd [6] of 1.14 nM.
